Read counts are not given, so values of variants with three or more changes are uncertain.
B1: CPEB3 Ribozyme (parent)
chain: UAACAGGGGGCCACAGCAGAAGCGUUCACGUCGCAGCCCCUGUCAGAUUCUGGUGAAUCUGCGAAUUCUGCUGUAUAUCUC

Variants of: B1
Experiment: self-cleavage, relative activity (ratio to wild type); higher = more cleavage; in vitro, sequencing
Method in brief: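 Relative activity was defined as the cleaved/total read fraction for a variant divided by the same fraction for the unmutated ribozyme. CPEB3 self-cleaving ribozyme libraries were made by rounds of error-prone PCR, barcoded, and transcribed in vitro with T7 RNA polymerase for 5 hours at 37°C, and cleavage ran through transcription plus a 15 min DNase I step before EDTA. Illumina sequencing of template-switched reverse transcripts gave the reads, and DNA sequencing mapped the barcodes. Averages come from three batches, using variants with at least 5 reads.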

| Variant | self-cleavage |
| --- | --- |
| G55C U69A U72A | 0.19 |
| G55U A56G A64U U76C | 0.23 |
| G55U U60A A77U U78C | 0.31 |
| G55U U72C U80A | 1.27 |
| G55U U74A U80C | 1.26 |
| A56C A64U U78C | 0.29 |
| A56C U58C U69C | 0.45 |
| A56C U58C U76C | 0.18 |
| A56C U69C U72C | 0.24 |
| A56G A57G A64U U69C | 0.16 |
| A56G A57G A65G | 0.18 |
| A56G A57G A65G U78C | 0.16 |
| A56G A57G A75G | 0.32 |
| A56G A57G A75G U78C | 0.45 |
| A56G A57G A77G | 0.39 |
| A56G A57G G61C A65U | 0.12 |
| A56G A57G U58C | 0.13 |
| A56G A57G U60A A64G U78C | 0.26 |
| A56G A57G U60G U69G | 0.2 |
| A56G A57G U72C | 0.25 |
| A56G A57G U76C | 0.4 |

| Variant | self-cleavage |
| --- | --- |
| A56G A57U U69C | 0.22 |
| A56G A64G U69C | 0.4 |
| A56G A64G U72C | 0.87 |
| A56G A64G U78C | 0.59 |
| A56G A64U U66C | 0.21 |
| A56G A64U U74C | 0.48 |
| A56G A64U U78C U80C | 0.16 |
| A56G A65C G70A | 0.19 |
| A56G A65G U67A | 0.17 |
| A56G A65G U69C A77G U78C | 0.31 |
| A56G A65G U72A | 0.3 |
| A56G A65U U72G | 0.22 |
| A56G C59A C68A A77G C79G | 0.27 |
| A56G C59A G61A | 0.19 |
| A56G C59U A64U G73A A77G | 0.46 |
| A56G C59U U67C U72A U78C | 0.23 |
| A56G C62U A64U | 0.23 |
| A56G C62U A64U U69C A75U | 0.18 |
| A56G G61A U78C | 0.39 |
| A56G G70A U78C | 0.58 |
| A56G U58A A64G G73A A77G | 0.27 |

| Variant | self-cleavage |
| --- | --- |
| A56G U58C U60C A64U | 0.13 |
| A56G U58C U67A | 0.23 |
| A56G U58C U80G | 0.58 |
| A56G U58G C59A A75U | 0.05 |
| A56G U58G C79A | 0.25 |
| A56G U58G U72C | 0.12 |
| A56G U60A G61C | 0.21 |
| A56G U60A U76C | 0.48 |
| A56G U60C A65G | 0.3 |
| A56G U60C A75G | 0.4 |
| A56G U60C G61A A77U | 0.4 |
| A56G U60C U72A U76A | 0.41 |
| A56G U60C U74C | 0.86 |
| A56G U66A U74C | 0.82 |
| A56G U66A U78C | 0.17 |
| A56G U66C G73U | 0.59 |
| A56G U66C U67C G70A U72A | 0.36 |
| A56G U66G U74C A75G | 0.56 |
| A56G U67A A75G | 0.24 |
| A56G U67A U78C | 0.31 |
| A56G U67C C71A | 0.18 |

| Variant | self-cleavage |
| --- | --- |
| A56G U69A U72A | 0.22 |
| A56G U69A U72A C79G | 0.41 |
| A56G U69A U74C | 0.96 |
| A56G U69C A77U | 0.62 |
| A56G U69C U72A | 0.31 |
| A56G U69C U78C | 0.48 |
| A56G U72A A77C | 0.24 |
| A56G U72C A75U U80G | 1.44 |
| A56G U72C U78C | 0.93 |
| A56G U72G U80G | 1.06 |
| A56G U74A A75G | 0.83 |
| A56G U76G U78C | 0.58 |
| A56U A57G C62U A64G | 0.1 |
| A56U A57G U60C A65G | 0.14 |
| A56U A57G U72C | 0.43 |
| A56U A57U U74C | 1.17 |
| A56U A64C A65G | 0.12 |
| A56U A64G U80C | 0.72 |
| A56U A64U C68U | 0.35 |
| A56U A65C U80A | 0.44 |

Source: the RNAGym collection of RNA variant scans (doi:10.1093/nar/gkz1192)
